Reference: PubChem BioAssay AID504706 (National Center for Advancing Translational Sciences (NCATS), 2011)
In all, about 320,000 compounds went through this assay and about 200 (0.062%) were called active. Inconclusive means that the source gave no clear call. Such entries were picked first, then a sample of the others. The call rests on the fitted dose curve; in most records, active means well fitted activation curve with a large enough effect; inconclusive means small, poorly fitted or top-dose-only effect; inactive means no such curve, though single readings can be large or run the other way. No potency is given beside an inconclusive call; the fits are too rough.

Experiment: qHTS assay for re-activators of p53 using a Luc reporter; further: nearly all actives have a fitted effect of over 45% in size; on activity change, positive = activation: % of control where 0% means no effect
Settings: H1299 p53-A138V BP100-luciferase reporter, luminescence, 24 h; series mostly up to 92.2 µM; activity change, positive = activation: at the top concentration
Method in brief: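 H1299 (p53-null), stable ts p53-A138V + BP100-Luc; 1000 cells/well, Opti-MEM/10% FBS; cpd 4 pt, 1:5; 24 h, 37 deg C, 5% CO2; detection reagent 10 min RT; luminescence.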
Potency means the concentration at half of the fitted maximal effect; tags describe the fitted curve by direction and shape.

| SMILES | activity change, positive = activation | Potency |
| --- | --- | --- |
| COc1ccc(C(=O)OCC#CCSc2nnc(-c3cccc4ccccc34)o2)cc1 | inactive: -0.245% |  |
| Cc1ccc(C(C(=O)NC2CCCCC2)N(C(=O)c2csnn2)C2CC2)cc1 (configuration not stated) | inactive: -1.19% |  |
| Cc1ccc(C(=O)Nc2c[nH]c(=O)[nH]c2=O)cc1 |  | inconclusive [activator, single point] |
| CCN(CC)S(=O)(=O)c1ccc(N2CCOCC2)c(NC(=O)COc2ccccc2C)c1 | inactive: -2.4% |  |
| CCCC(C)NS(=O)(=O)c1ccc(OC)c(C)c1 (configuration not stated) | inactive: 0.0113% |  |
| Cc1cnc(C(=O)OCc2nc3ccsc3c(=O)[nH]2)cn1 | inactive: 0.973% |  |
| Cc1cccc(NC(=O)c2ccc([N+](=O)[O-])s2)c1C |  | inconclusive [activator, single point] |
| CCc1ccccc1NC(=O)c1cccc(Oc2ccc([N+](=O)[O-])cc2Cl)c1 |  | inconclusive [activator, full curve, poor fit] |
| CC(=O)Nc1ccc(S(=O)(=O)Nc2ccccc2C(=O)NCc2cccnc2)cc1 | inactive: 0.879% |  |
| CCN1CCCC1CNC(=O)CCNC(=O)c1cc(OC)c(OC)c(OC)c1 (configuration not stated) |  | inconclusive [activator, single point] |
| O=C(O)c1cccc(NC(=O)c2ccc(CN3C(=O)c4ccccc4C3=O)cc2)c1 |  | inconclusive [activator, partial curve, poor fit] |
| Cc1sc(NC(=O)c2c(F)cccc2F)nc1-c1ccccc1 |  | inconclusive [activator, single point] |
| CC1Cc2ccccc2N1C(=O)c1ccc(N2CCCCC2)c([N+](=O)[O-])c1 (configuration not stated) |  | inconclusive [activator, single point] |
| CN1CCN(Cc2cc(Cl)c3cccnc3c2OC(=O)c2cccs2)CC1 | inactive: 25.1% |  |
| CCCOc1ccc(-c2nnc(N)s2)cc1 |  | inconclusive [activator, partial curve, poor fit] |
| CCCNC(=O)c1ccccc1NS(=O)(=O)c1ccc(OC)c(OC)c1 | inactive: -0.0517% |  |
| Cc1ccc(-c2nnn(CC(=O)Nc3ccccc3-c3ccccc3)n2)c(-n2cnnn2)c1 | inactive: 1.85% |  |
| NC(=O)SCC(=O)Nc1cccc(Cl)c1 | inactive: 3.51% |  |
| O=c1cc(-c2cccs2)oc2ccc(Cl)cc12 |  | inconclusive [activator, partial curve, poor fit] |
| CC1(CCc2ccc3c(c2)OCO3)NC(=O)c2ccccc2N1 (configuration not stated) | inactive: -2.43% |  |
| CN(C)c1oc(COc2ccccc2F)nc1C#N |  | inconclusive [activator, full curve, poor fit] |
| Brc1c(-c2ccc3c(c2)OCO3)nc2ncccn12 | inactive: 6.44% |  |
| Cc1ccc2oc(C(=O)N(Cc3ccc(N(C)C)cc3)C3CCS(=O)(=O)C3)c(C)c2c1 (configuration not stated) | inactive: -6.8% |  |
| CC(=O)N1CCN(c2ccc(NC(=O)c3cc(Cl)ccc3Cl)cc2)CC1 | inactive: 5.33% |  |

| SMILES | activity change, positive = activation | Potency |
| --- | --- | --- |
| CC1=NN(c2ccccc2)C(=O)C1N=Nc1ccccc1 (configuration not stated) |  | inconclusive [activator, partial curve, poor fit] |
| COc1cccc(/C=C2\N=C3CCCCCN3C2=O)c1 |  | inconclusive [activator, partial curve, poor fit] |
| Cc1ccc2c(c1)c1c(n2CCc2ccc(C)nc2)CCN(C)C1 |  | inconclusive [activator, single point] |
| CC(Sc1nnc(Nc2ccccc2)s1)C(=O)Nc1nc(-c2ccccc2)cs1 (configuration not stated) |  | inconclusive [activator, partial curve, poor fit] |
| COc1ccccc1CC(=O)c1ccc(OCc2ccccc2)cc1 |  | inconclusive [activator, partial curve, poor fit] |
| O=C(NCCc1ccc(F)cc1)NC12CC3CC(CC(C3)C1)C2 |  | inconclusive [activator, partial curve, poor fit] |
| COc1ccc(-c2noc(-c3ccc4c(c3)OCO4)n2)cc1 |  | inconclusive [activator, partial curve, poor fit] |
| COc1ccc(CCNC(=O)C2CC(c3cccc([N+](=O)[O-])c3)=NO2)cc1 (configuration not stated) |  | inconclusive [activator, partial curve, poor fit] |
| O=C(CSc1nc2c(c(=O)n1-c1ccc(F)cc1)SCC2)NCc1ccco1 |  | inconclusive [activator, single point] |
| O=C(Nc1ccc(Cl)cc1)c1ccc2c(c1)OCO2 |  | inconclusive [activator, full curve, poor fit] |
| COc1ccccc1C1C=C(c2ccccc2)Nc2nnnn21 (configuration not stated) |  | inconclusive [activator, full curve, poor fit] |
| Cc1ccc(C(=O)Nc2nnc(C3CCCCC3)s2)o1 |  | inconclusive [activator, partial curve, poor fit] |
| Cc1cccc(NC(=S)NCc2ccccc2)c1C | inactive: -1.31% |  |
| Cc1c(N=Cc2c(O)n(C)c(=O)c3ccccc23)c(=O)n(-c2ccccc2)n1C | inactive: -0.468% |  |
| COc1cnc(-c2ccccn2)nc1N(C)c1ccccc1 |  | inconclusive [activator, partial curve, poor fit] |
| CCOC(=O)c1c(C)[nH]c(C(C)=NNC(=O)c2cccs2)c1C |  | inconclusive [activator, full curve, poor fit] |
| COc1cccc(-c2nnc3sc(-c4ccc(C)cc4)nn23)c1 | inactive: -3.94% |  |
| COc1cccc(NC(=O)CSc2nc3ncc(Br)cc3[nH]2)c1 |  | inconclusive [activator, single point] |
| COc1cccc(OC(C)c2ccnc3nc(/N=C/N(C)C)nn23)c1 (configuration not stated) | inactive: -8.86% |  |
| CCN1CCN(C(=O)C2CCN(Cc3nc(-c4cccc(Cl)c4)oc3C)CC2)CC1 |  | inconclusive [activator, single point] |
| COc1ccc(NC(=S)NC(=O)C2CCC2)cc1 |  | inconclusive [activator, partial curve, poor fit] |
| Cc1oc(/N=C/c2ccc(Cl)cc2Cl)c(C#N)c1C | inactive: -1.67% |  |
| O=C(Nc1ccccc1C(=O)N/N=C/c1ccc(O)cc1)c1ccccc1 |  | inconclusive [activator, partial curve, poor fit] |
| C/C(=N/NC(=O)CN1CCN(Cc2ccccc2Cl)CC1)c1cccnc1 | inactive: -5.46% |  |

| SMILES | activity change, positive = activation | Potency |
| --- | --- | --- |
| CC(=O)c1ccc(OCC(O)CN(C)Cc2cccs2)cc1 (configuration not stated) |  | inconclusive [activator, single point] |
| S=C(c1ccc(-c2cc(Cl)ccc2Cl)o1)N1CCOCC1 |  | inconclusive [activator, partial curve, poor fit] |
| COc1ccccc1/C=N\N=C(\N)c1ccccn1 |  | inconclusive [activator, partial curve, poor fit] |
| CCOc1ccc(C(=O)N/N=C/c2cccc3cccnc23)cc1 | inactive: 5.35% |  |
| Cc1ccc(SCC(=O)N2CCOCC2)cc1 |  | inconclusive [activator, full curve, poor fit] |
| CC(C)c1ccc(NC(=O)CSc2n[nH]c(=O)n2Cc2ccco2)cc1 | inactive: -3.12% |  |
| Cc1nc(C)c(-c2csc(NCc3ccco3)n2)s1 | inactive: 23.3% |  |
| Cc1c2ccccc2nc2c(F)c(NC(C)C)c(F)c(F)c12 |  | inconclusive [activator, full curve, poor fit] |
| COc1ccc(C(CC(=O)c2ccc(C)cc2)Nc2ccc([N+](=O)[O-])cc2)cc1 (configuration not stated) |  | inconclusive [activator, full curve, poor fit] |
| Cc1cc(N2CCC(C)CC2)n2ncc(-c3ccccc3)c2n1 |  | inconclusive [activator, partial curve, poor fit] |
| CCCNC(=O)C(Cc1ccccc1F)NC(=O)c1ccc(C#N)cc1 (configuration not stated) | inactive: -11% |  |
| CN1OC(COC(=O)c2ccccc2)CC1c1ccccc1 (configuration not stated) |  | inconclusive [activator, partial curve, poor fit] |
| N#CC1=C(N)Oc2n[nH]c(-c3ccccc3)c2C12C(=O)Nc1ccccc12 (configuration not stated) | inactive: -4.75% |  |
| Cc1c(C(=O)Nc2nonc2-c2ccc(F)cc2)oc2ccc(F)cc12 | inactive: 19.1% |  |
| CC(C)(C)c1cc(=O)n2c(C#N)c(C#N)nc2[nH]1 | inactive: -9.73% |  |
| Cc1ccc(NC(=O)CC(C)CC(=O)NCc2ccccc2)cc1Cl (configuration not stated) |  | inconclusive [activator, single point] |
| COc1cc(/C=C/C(=O)c2ccc3c(c2)OCO3)cc(Cl)c1O | inactive: 14.4% |  |
| CC(C)(C)c1cc(-n2ccnc2)n2ncc(-c3ccc(Cl)cc3)c2n1 |  | inconclusive [activator, partial curve, poor fit] |
| O=C(O)C[C@@H]1C(=O)O[C@@H]2C(COC(=O)c3cc(O)c(O)c(O)c3)O[C@@H](OC(=O)c3cc(O)c(O)c(O)c3)[C@@H](OC(=O)c3cc(O)c(O)c4c3[C@H]1[C@H](O)C(=O)O4)[C@H]2OC(=O)c1cc(O)c(O)c(O)c1 (some centres not stated) | inactive: 1.56% |  |
| Cc1ccc(C(=O)NNC(=O)c2n[nH]c(=O)c3ccccc23)cc1C | inactive: 10.4% |  |
| COC(=O)NNC(=O)c1ccc(C(C)(C)C)cc1 |  | inconclusive [activator, partial curve, poor fit] |
| COc1ncnc2sc(-c3ccccc3)cc12 |  | inconclusive [activator, partial curve, poor fit] |
| O=C(NCCC1=CCCCC1)c1cnsn1 |  | inconclusive [activator, partial curve, poor fit] |
| CCOC(=O)c1c(C)nc2c(c1-c1ccccc1)C(=O)c1ccccc1-2 | inactive: -5.4% |  |
